# Test results taken from ChEMBL document CHEMBL1201862, “PubChem BioAssay data set” (2004).
#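 The compound was tested at five concentrations on cells cultured in 96-well plates, with a 48-hour exposure period. At the GI50, growth is halved.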 Active and inactive are the calls of the source. Cut-off read from the data, not from the text of the source: active = GI50 up to about 1.1 µM and inactive = higher.
# Test system: NCI-H322M
# Test: NCI-60 cell line screen, 48 h
row,SMILES,GI50
1,CC(=O)OCC(OC(C)=O)C(OC(C)=O)C(OC(C)=O)C(/C=N\Nc1nc2ccccc2c(=O)[nH]1)=N/Nc1nc2ccccc2c(=O)[nH]1 (stereo not drawn),inactive: > 100 µM
2,O=[N+]([O-])c1ccc2nc(Nc3ccccc3)c(Nc3ccccc3)nc2c1,inactive: 3.5 µM
3,O=C1OC(c2ccccc2)=N/C1=C/NC(Cc1c[nH]cn1)C(=O)O (stereo not drawn),inactive: > 100 µM
4,CC/C=C/C(/C=C/C[C@]1(CC)C[C@H](CC)[C@H](CC(=O)O)OO1)CC (stereo partly drawn),inactive: 2.97 µM
5,COc1cccc(C2c3cc4c(cc3OC(Nc3ccccc3)C2C)OCO4)c1OC (stereo not drawn),inactive: 21.7 µM
6,COc1cccc2nc3ccccc3nc12,inactive: 40.2 µM
7,COc1ccc(C2C3=C(COC3=O)Oc3cc4c(cc32)OCO4)cc1 (stereo not drawn),inactive: 39.4 µM
8,CCN(CCCOc1ccccc1)CCN(CC)CCCOc1ccccc1,inactive: 15.6 µM
9,COC1C(O)=C2C(=O)O/C(C)=C/C=C/C=C/C=C\CC(c3ccccc3)NC(=O)\C=C/C=C\C=C\C=C\[C@@]2(C)[C@@H]1O (stereo partly drawn),active: 0.0776 µM
10,O=C1CC(NC(=O)C(F)(F)F)c2c1csc2Br (stereo not drawn),inactive: 6.58 µM
11,COc1ccc(C2NC3=C(CCCC3)N2)cc1,inactive: > 100 µM
12,COc1cc(S(=O)(=O)Nc2ccc(-c3csc(N4C(=O)C(Cl)C4c4ccccc4O)n3)cc2)ccc1Cl (stereo not drawn),active: 0.655 µM
13,O=C1/C(=C(/Br)I)c2ccccc2-c2ccccc21,inactive: 14.1 µM
14,O=C(O)c1nc2ccc(Cl)cc2[nH]c1=O,inactive: > 100 µM
15,c1ccc2c(CN3CCN(Cc4c[nH]c5ccccc45)CC3)c[nH]c2c1,inactive: 18.1 µM
16,[O-][S+]1Cc2ccccc2CS1 (stereo not drawn),inactive: > 100 µM
17,N#CC(C(=O)CCC(=O)Nc1cccc(C(F)(F)F)c1)c1ccc(Cl)cc1 (stereo not drawn),inactive: > 100 µM
18,CNn1c(-c2ccccc2)n[nH]c1=O,inactive: > 100 µM
19,COc1ccc(N(C(=O)OC(C)(C)C)[C@@H]2C(C)=C[C@H]([S@@+]([O-])c3ccc(C)cc3)[C@@H]3C(=O)N(C)C(=O)[C@@H]32)cc1,inactive: 20 µM

row,SMILES,GI50
1,CC1=NC(C)(COC(=O)C2(C)NC(C)(CO)CO2)COC1=O (stereo not drawn),inactive: > 100 µM
2,CCc1nc(Cl)nc(Cl)c1Cl,inactive: 2.6 µM
3,CC1(C)OP(=O)(O)CC1=O,inactive: > 100 µM
4,O=C1c2c(ccc3c2CCC3)CC1Cc1ccc2c(c1)CCC2 (stereo not drawn),inactive: 86.7 µM
5,N#CC1CNC(N)NC1N (stereo not drawn),inactive: > 100 µM
6,CCCCNN,inactive: > 100 µM
7,CCOc1c(OC)cc(-c2nc3n(n2)C(=O)C(CC)S3)cc1OC (stereo not drawn),inactive: > 10 µM
8,O=c1[nH]c(-c2ccccc2)nc2cc([N+](=O)[O-])c(/C(Cl)=C/c3ccccc3)cc12,inactive: 49.5 µM
9,CC1=C(C(=O)Nc2ccc([N+](=O)[O-])cc2)C(c2ccc(N(C)C)cc2)C(C(=O)Nc2ccc([N+](=O)[O-])cc2)=C(C)N1,inactive: 20.7 µM
10,C/C(=N\NC(N)=O)C(CN(C)C)C(c1ccccc1)c1c(O)c2ccccc2oc1=O (stereo not drawn),inactive: > 100 µM
11,O=C1C(c2ccccc2)=C(c2ccccc2)C(c2ccccc2)/C1=C1\C(=O)C(c2ccccc2)=C(c2ccccc2)C1c1ccccc1 (stereo not drawn),inactive: > 100 µM
12,CCOC(=O)CN1C(=O)c2c(NC(=O)C(=O)O)cccc2S1(=O)=O,inactive: > 100 µM
13,O=C(CO)C1CC2C=CC1C2 (stereo not drawn),inactive: > 100 µM
14,NC(=O)c1cc(N(CCO)CCO)c([N+](=O)[O-])cc1[N+](=O)[O-],inactive: > 100 µM
15,Cn1c(C(O)C2(c3cccnc3)SCCCS2)cc2ccccc21 (stereo not drawn),inactive: > 100 µM
16,COc1cc(C)c2c(c1)CN1CN2Cc2cc(OC)cc(C)c21,inactive: > 100 µM
17,Oc1ccc(-c2nc(-c3cccnc3)c(-c3ccc(Cl)cc3)[nH]2)cc1,inactive: 14.5 µM
18,CN(N=O)c1ccc(/C=C/c2ccnc3ccccc23)cc1,inactive: 46.8 µM
19,CCC/C=C/c1cc2c(cc1O)CC[C@@H]1[C@@H]2CC[C@]2(C)[C@@H](O)CC[C@@H]12,inactive: 16.9 µM
